# From the supplement of paper PMC8728848
# The other results are listed elsewhere or left out.
# B1: SP16664D-bth-476-27-476 (Bacteroides thetaiotaomicron) (protein)
# chain: DDLEVGKNIDESAYSGIYENNAYLRDGKSNLVSKVVELHGETYATTVKMGLSKTPNTATSAKVKIDAAYLETYNKAHNTDFALYPQDLVTFANEGILTVNANTKSAEVEMTIRAGEGLQEDKTYAIPVAISDQSSDITIKDEDAKHCIYLVKDMRNAGDAYKGEGVMQGYLFFEVNDVNPLNTLSFQLENGKLLWDVVVLFAANINYDAEAGRPRVQCNPNVQYLLDNNETLLQPLRRRGVKVLLGLLGNHDITGLAQLSEQGAKDFAREVAQYCKAYNLDGVNYDDEYSNSPDLSNPSLTNPSTAAAARLCYETKQAMPDKLVTVFDWGQMYGVATVDGVDAKEWIDIVVANYGSAAYPIGQMTKKQCSGISMEFNLGGGGSLSASKAQSMIDGGYGWFMGFAPSPAKYGSVFSRLQGGGEVLYGSNVAAPTIFYKKNDPTPYKYPDDL
# Assays:
# Test in all cases: glycan array binding signal (z-score within array); higher = stronger binding
# Conditions in all cases: glycan notation: IUPAC condensed, linker removed
# [1] = molecular target: Man(a1-3)[Man(a1-6)]Man(a1-6)[Man(a1-3)]Man
# Procedure, shortened: (§1)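 The binding signal is a Z-score computed within each array. Data were drawn from 3228 arrays in the Consortium for Functional Glycomics database, restricted to those with a known protein sequence. Scores were averaged over arrays of the same protein sequence at different concentrations or buffers, and over linkers, and negative values can be taken as non-binding.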
# [2] = molecular target: Man(a1-3)[Man(a1-6)]Man(a1-6)[Man(a1-3)]Man(b1-4)GlcNAc(b1-4)GlcNAc
# Procedure, shortened: as §1
# [3] = molecular target: Man(a1-3)[Man(a1-6)]Man(b1-4)GlcNAc(b1-4)GlcNAc
# Procedure, shortened: as §1
# [4] = molecular target: Man(a1-3)[Man(a1-6)]Man(b1-4)GlcNAc(b1-4)[Fuc(a1-6)]GlcNAc
# Procedure, shortened: as §1
# Man(a1-6)Man = molecular target: Man(a1-6)Man
# Procedure, shortened: as §1
# Man(b1-4)GlcNAc = molecular target: Man(b1-4)GlcNAc
# Procedure, shortened: as §1
# MurNAc(b1-4)GlcNAc = molecular target: MurNAc(b1-4)GlcNAc
# Procedure, shortened: as §1
# Neu5Ac(a2-3)Gal = molecular target: Neu5Ac(a2-3)Gal
# Procedure, shortened: as §1
# [5] = molecular target: Neu5Ac(a2-3)Gal(b1-3)GalNAc
# Procedure, shortened: as §1
# [6] = molecular target: Neu5Ac(a2-3)Gal(b1-3)GalNAc(b1-3)Gal(a1-4)Gal(b1-4)Glc
# Procedure, shortened: as §1
# [7] = molecular target: Neu5Ac(a2-3)Gal(b1-3)GalNAc(b1-4)[Neu5Ac(a2-3)]Gal(b1-4)Glc
# Procedure, shortened: as §1
# [8] = molecular target: Neu5Ac(a2-3)Gal(b1-3)GalNAc(b1-4)[Neu5Ac(a2-8)Neu5Ac(a2-3)]Gal(b1-4)Glc
# Procedure, shortened: as §1
# [9] = molecular target: Neu5Ac(a2-3)Gal(b1-3)GalNAc6S
# Procedure, shortened: as §1
# [10] = molecular target: Neu5Ac(a2-3)Gal(b1-3)GlcNAc
# Procedure, shortened: as §1
# [11] = molecular target: Neu5Ac(a2-3)Gal(b1-3)GlcNAc(b1-2)Man
# Procedure, shortened: as §1
# [12] = molecular target: Neu5Ac(a2-3)Gal(b1-3)GlcNAc(b1-2)Man(a1-3)[GlcNAc(b1-4)][Neu5Ac(a2-3)Gal(b1-3)GlcNAc(b1-2)Man(a1-6)]Man(b1-4)GlcNAc(b1-4)GlcNAc
# Procedure, shortened: as §1
# [13] = molecular target: Neu5Ac(a2-3)Gal(b1-3)GlcNAc(b1-2)Man(a1-3)[Neu5Ac(a2-3)Gal(b1-3)GlcNAc(b1-2)Man(a1-6)]Man(b1-4)GlcNAc(b1-4)GlcNAc
# Procedure, shortened: as §1
# [14] = molecular target: Neu5Ac(a2-3)Gal(b1-3)GlcNAc(b1-3)Gal(b1-3)GlcNAc
# Procedure, shortened: as §1
# [15] = molecular target: Neu5Ac(a2-3)Gal(b1-3)GlcNAc(b1-3)Gal(b1-4)GlcNAc
# Procedure, shortened: as §1
# [16] = molecular target: Neu5Ac(a2-3)Gal(b1-3)GlcNAc(b1-3)GalNAc
# Procedure, shortened: as §1
# [17] = molecular target: Neu5Ac(a2-3)Gal(b1-3)GlcNAc(b1-4)Gal(b1-4)Glc
# Procedure, shortened: as §1
# [18] = molecular target: Neu5Ac(a2-3)Gal(b1-3)GlcNAc(b1-6)GalNAc
# Procedure, shortened: as §1
# [19] = molecular target: Neu5Ac(a2-3)Gal(b1-3)GlcNAc6S
# Procedure, shortened: as §1
# [20] = molecular target: Neu5Ac(a2-3)Gal(b1-3)[Fuc(a1-4)]GlcNAc
# Procedure, shortened: as §1
# [21] = molecular target: Neu5Ac(a2-3)Gal(b1-3)[Fuc(a1-4)]GlcNAc(b1-3)Gal(b1-3)[Fuc(a1-4)]GlcNAc
# Procedure, shortened: as §1
# [22] = molecular target: Neu5Ac(a2-3)Gal(b1-3)[Fuc(a1-4)]GlcNAc(b1-3)Gal(b1-4)[Fuc(a1-3)]GlcNAc
# Procedure, shortened: as §1
# [23] = molecular target: Neu5Ac(a2-3)Gal(b1-3)[GlcNAc(b1-6)]GalNAc
# Procedure, shortened: as §1
# [24] = molecular target: Neu5Ac(a2-3)Gal(b1-3)[Neu5Ac(a2-6)]GalNAc
# Procedure, shortened: as §1
# [25] = molecular target: Neu5Ac(a2-3)Gal(b1-3)[Neu5Ac(a2-6)]GlcNAc(b1-3)[Fuc(a1-3)[Gal(b1-4)]GlcNAc(b1-6)]Gal(b1-4)Glc
# Procedure, shortened: as §1
# [26] = molecular target: Neu5Ac(a2-3)Gal(b1-3)]Neu5Ac(a2-3)Gal(b1-4)]GlcNAc
# Procedure, shortened: as §1
# Neu5Ac(a2-3)Gal(b1-4)Glc = molecular target: Neu5Ac(a2-3)Gal(b1-4)Glc
# Procedure, shortened: as §1
# [27] = molecular target: Neu5Ac(a2-3)Gal(b1-4)GlcNAc
# Procedure, shortened: as §1
# [28] = molecular target: Neu5Ac(a2-3)Gal(b1-4)GlcNAc(b1-2)Man
# Procedure, shortened: as §1
# [29] = molecular target: Neu5Ac(a2-3)Gal(b1-4)GlcNAc(b1-2)Man(a1-3)[GlcNAc(b1-4)][Neu5Ac(a2-3)Gal(b1-4)GlcNAc(b1-2)Man(a1-6)]Man(b1-4)GlcNAc(b1-4)GlcNAc
# Procedure, shortened: as §1
# [30] = molecular target: Neu5Ac(a2-3)Gal(b1-4)GlcNAc(b1-2)Man(a1-3)[Neu5Ac(a2-3)Gal(b1-4)GlcNAc(b1-2)Man(a1-6)]Man(b1-4)GlcNAc(b1-4)GlcNAc
# Procedure, shortened: as §1
# [31] = molecular target: Neu5Ac(a2-3)Gal(b1-4)GlcNAc(b1-2)Man(a1-3)[Neu5Ac(a2-3)Gal(b1-4)GlcNAc(b1-2)Man(a1-6)]Man(b1-4)GlcNAc(b1-4)[Fuc(a1-6)]GlcNAc
# Procedure, shortened: as §1
# [32] = molecular target: Neu5Ac(a2-3)Gal(b1-4)GlcNAc(b1-2)Man(a1-3)[Neu5Ac(a2-6)Gal(b1-4)GlcNAc(b1-2)Man(a1-6)]Man(b1-4)GlcNAc(b1-4)GlcNAc
# Procedure, shortened: as §1
# [33] = molecular target: Neu5Ac(a2-3)Gal(b1-4)GlcNAc(b1-2)[Neu5Ac(a2-3)Gal(b1-4)GlcNAc(b1-4)]Man(a1-3)[GlcNAc(b1-4)][Neu5Ac(a2-3)Gal(b1-4)GlcNAc(b1-2)[Neu5Ac(a2-3)Gal(b1-4)GlcNAc(b1-6)]Man(a1-6)]Man(b1-4)GlcNAc(b1-4)GlcNAc
# Procedure, shortened: as §1
binder,measurement,setting,value
B1,glycan array binding signal (z-score),[1],-0.025
same,glycan array binding signal (z-score),[2],-0.183
same,glycan array binding signal (z-score),[3],-0.049
same,glycan array binding signal (z-score),[4],-0.031
same,glycan array binding signal (z-score),Man(a1-6)Man,0.047
same,glycan array binding signal (z-score),Man(b1-4)GlcNAc,0.068
same,glycan array binding signal (z-score),MurNAc(b1-4)GlcNAc,-0.209
same,glycan array binding signal (z-score),Neu5Ac(a2-3)Gal,-0.156
same,glycan array binding signal (z-score),[5],-0.032
same,glycan array binding signal (z-score),[6],-0.234
same,glycan array binding signal (z-score),[7],-0.158
same,glycan array binding signal (z-score),[8],0.089
same,glycan array binding signal (z-score),[9],-0.227
same,glycan array binding signal (z-score),[10],-0.158
same,glycan array binding signal (z-score),[11],-0.33
same,glycan array binding signal (z-score),[12],-0.152
same,glycan array binding signal (z-score),[13],-0.32
same,glycan array binding signal (z-score),[14],-0.183
same,glycan array binding signal (z-score),[15],-0.279
same,glycan array binding signal (z-score),[16],-0.364
same,glycan array binding signal (z-score),[17],-0.46
same,glycan array binding signal (z-score),[18],0.137
same,glycan array binding signal (z-score),[19],-0.262
same,glycan array binding signal (z-score),[20],-0.279
same,glycan array binding signal (z-score),[21],-0.341
same,glycan array binding signal (z-score),[22],-0.271
same,glycan array binding signal (z-score),[23],0.012
same,glycan array binding signal (z-score),[24],-0.118
same,glycan array binding signal (z-score),[25],-0.206
same,glycan array binding signal (z-score),[26],-0.171
same,glycan array binding signal (z-score),Neu5Ac(a2-3)Gal(b1-4)Glc,-0.011
same,glycan array binding signal (z-score),[27],-0.347
same,glycan array binding signal (z-score),[28],-0.18
same,glycan array binding signal (z-score),[29],-0.407
same,glycan array binding signal (z-score),[30],-0.12
same,glycan array binding signal (z-score),[31],0.029
same,glycan array binding signal (z-score),[32],-0.195
same,glycan array binding signal (z-score),[33],-0.043
